According to PubChem BioAssay AID652104 (National Center for Advancing Translational Sciences (NCATS), 2013):
The campaign covered roughly 410,000 compounds. About 7,200 (1.8%) were called active. The shares of active, inactive and inconclusive entries below differ from those in the screen. The call rests on the fitted dose curve; in most records, active means well fitted activation curve with a large enough effect; inconclusive means small, poorly fitted or top-dose-only effect, or another doubt; inactive means no such curve, though single readings can be large or run the other way. No potency is given beside an inconclusive call; the fits are too rough.

Assay: qHTS of TDP-43 Inhibitors; further: nearly all actives have a fitted effect of over 50% in size
Conditions: TDP-43 expressing yeast growth rescue, BacTiter-Glo, 24 h; series mostly up to 46.1 µM
Method in brief: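 Yeast cells expressing TDP-43 under galactose induction are exposed to compounds for 24 hr at 30 deg C. BacTiter-Glo luminescence measures growth, so protective compounds score as activators.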
Potency means the concentration at half of the fitted maximal effect; tags describe the fitted curve by direction and shape.

| SMILES | Potency |
| --- | --- |
| O=C(/C=C/c1ccco1)Nc1ccc(Oc2ccc(Cl)cc2)cc1 | inactive |
| COc1ccc(NC(=O)c2cc3n(n2)C(C(F)(F)F)CC(c2ccco2)N3)cc1 (stereo not drawn) | inconclusive [activator, partial curve, poor fit] |
| O=C(NCc1ccc(Cl)cc1)c1ccc(CSCc2cccc(Cl)c2)o1 | inconclusive [activator, partial curve] |
| O=C(Cc1ccccc1)N(Cc1cccnc1)c1nc2c(F)cccc2s1 | inconclusive [activator, single point] |
| COc1ccccc1NC(=S)NCCc1ccc(Cl)cc1 | active: 15.8 µM |
| COc1ccccc1NC(=O)C(=O)N(c1cccnc1)C(C(=O)NC(C)(C)C)c1ccccc1 (stereo not drawn) | inactive |
| Cc1ccccc1OC(=O)c1snnc1C | inconclusive [activator, partial curve] |
| CC(=O)Nc1cccc(-c2csc(C(C)(O)c3ccccc3)n2)c1 (stereo not drawn) | inconclusive [activator, full curve] |
| Cn1c(CNC(=O)CSc2n[nH]c(-c3ccccc3Cl)n2)nc2ccccc21 | inactive |
| CC(C)Cn1nc(C(=O)NCc2ccccc2CN2CCCC2)c2ccccc2c1=O | inactive |
| Cc1ccc(-n2cc(-c3ccccc3)c3c(NC4CCCC4)ncnc32)cc1 | active: 35.5 µM |
| O=C(CSC1CC(=O)N(CCc2ccccc2)C1=O)Nc1cccc(Cl)c1 (stereo not drawn) | active: 17.8 µM |
| CCc1ccccc1NC(=O)/C(C#N)=C/c1ccc(Sc2ccccc2)o1 | inactive |
| CCn1c(/C=C/c2ccc(O)cc2)nc2ccccc2c1=O | active: 17.8 µM |
| CCOc1ccc(C(=O)NC2CCN(CC(=O)NCc3cccs3)CC2)cc1 | inactive |
| Cn1cc(CC(=O)N2CCN(c3ccc(Cl)cc3)CC2)c2ccccc21 | inconclusive [activator, partial curve] |
| C#CCn1c(COc2ccccc2C)nc2ccccc21 | inconclusive [activator, full curve, poor fit] |
| COc1cccc(/C=N/c2sc(Cc3ccccc3)c(C)c2C(N)=O)c1O | inconclusive [activator, partial curve] |
| COc1ccc(Br)cc1CNC(=O)c1cc2ccccn2n1 | inconclusive [activator, single point] |
| O=C(COc1ccc(F)cc1)Nc1nc2c(s1)CCCC2 | inconclusive [activator, partial curve] |
| CSc1ccccc1OCc1cc(C(=O)NCc2csc(C(C)C)n2)no1 | inconclusive [activator, partial curve] |
| COc1cccc(/C=C/C(=O)c2cccc([N+](=O)[O-])c2)c1OC | active: 11.2 µM |
| O=C(Nc1ccc(-n2cnnn2)cc1)C1CCCCC1 | inactive |
| COc1ccc(/C=N\Nc2ccc([N+](=O)[O-])cc2)c(C(=O)O)c1OC | inactive |
| COc1ccc(NC(=O)C(c2ccc(C#N)cc2)n2c(=O)c(-c3cc4ccccc4[nH]3)nc3ccccc32)cc1 (stereo not drawn) | inconclusive [activator, full curve, poor fit] |

| SMILES | Potency |
| --- | --- |
| C=Cc1ccc(Cn2c(C)c(C(=O)NCc3ccc4c(c3)OCO4)sc2=O)cc1 | active: 22.4 µM |
| COc1ccc(-n2ncc3c2CC(C)(C)CC3NC(=O)c2ccc(OC)o2)cc1 (stereo not drawn) | inactive |
| CC(=O)Nc1cc([N+](=O)[O-])ccc1OCc1ccccc1 | inconclusive [activator, full curve] |
| O=C(O)c1cc2nc3c(c(C(F)(F)F)n2n1)CCc1ccccc1-3 | inactive |
| Cc1ccccc1OCCC(=O)OCC(=O)N1CCN(S(=O)(=O)c2ccc(Cl)cc2)CC1 | inconclusive [activator, partial curve] |
| COc1ccccc1Cc1c(-c2ccc(C#N)cc2)nc2ccc(C)cn12 | inconclusive [activator, partial curve] |
| C[C@H](CO)N1C[C@H](C)[C@@H](CN(C)S(=O)(=O)c2ccccc2F)Oc2ncc(Br)cc2C1=O | inactive |
| COc1ccc(-n2c(C)cc(C(=O)CSc3ccc(NC(C)=O)cc3)c2C)cc1 | inactive |
| O=C(c1cc(F)ccc1F)C1CCCN(C(=O)c2cccs2)C1 (stereo not drawn) | inactive |
| CC1CCCC(NC(=O)NC(=O)COC(=O)c2ccc(O)cc2O)C1C (stereo not drawn) | inconclusive [activator, partial curve] |
| Cc1ccc2c(=O)c(C(=O)c3ccccc3)cn(CC(=O)Nc3ccc4c(c3)OCCO4)c2n1 | inactive |
| Cc1cccc(NCCNc2cccc(C)c2)c1 | inconclusive [activator, single point] |
| COCc1cc(C)nc(N2CCc3ccccc32)c1C#N | inactive |
| Cc1ccccc1CNC(=O)c1ccc(Cl)c([N+](=O)[O-])c1 | inconclusive [activator, single point] |
| CCCn1c(SCc2nc(-c3ccccc3C)no2)nnc1-c1ccc(Cl)cc1 | inconclusive [activator, partial curve, poor fit] |
| Cc1cccc(OCc2cc(=O)n3c(-c4ccccc4)csc3n2)c1C | inconclusive [activator, partial curve] |
| Cc1ccc2nc(Cl)c(/C=C/C(=O)c3ccco3)cc2c1 | inconclusive [activator, partial curve] |
| COc1cccc(CN(C)C(=S)Nc2cccc(C)c2)c1 | active: 11.2 µM |
| O=C(N/N=C/c1cccc(Oc2ccccc2)c1)c1ccc(O)cc1O | inconclusive [activator, single point] |
| Cc1ccc(-c2cc(-c3ccc(C)cc3O)[nH]n2)cc1 | inconclusive [activator, single point] |
| N#CC(Cc1cccc(CC(C#N)(c2ccccc2)c2ccccc2)c1)(c1ccccc1)c1ccccc1 | inconclusive [activator, single point] |
| C=CCN1C(=O)N(CC=C)c2cccc3cccc1c23 | inconclusive [activator, partial curve] |
| COc1ccc(NC(=O)CSc2c3c(nc4cc(Cl)ccc24)CCCC3)cc1OC | inactive |
| COc1ccc(C(=O)NCCC2=CCCCC2)cc1[N+](=O)[O-] | inconclusive [activator, partial curve] |
| Cc1ccc2cccc(Oc3nnnn3-c3ccccc3)c2n1 | inconclusive [activator, partial curve] |

| SMILES | Potency |
| --- | --- |
| COc1ccc(Cn2c(C(=O)O)c(CNCc3cccc(OC)c3)c3ccc(C)cc32)cc1 | inactive |
| CCCCCN1CSC(=S)N(Cc2ccccc2)C1 | inconclusive [activator, partial curve] |
| CCOc1ccccc1Oc1cn[nH]c1-c1ccc(OC)cc1O | active: 22.4 µM |
| CCN=c1scc(-c2ccc(F)cc2)n1/N=C/c1ccccn1 | inconclusive [activator, partial curve] |
| CSCCC(C(=O)N(C)CC(=O)Nc1cccc(F)c1)N1C(=O)c2ccccc2C1=O (stereo not drawn) | inactive |
| COc1ccc(/C(N)=N/OC(=O)c2cccc([N+](=O)[O-])c2)cc1 | inactive |
| COc1ccc(C(C#N)=Cc2ccc(OC)c(OC)c2)cc1 | inconclusive [activator, partial curve, poor fit] |
| CCc1nnc(NC(=O)c2nc(S(=O)(=O)Cc3cccc(C)c3)ncc2Cl)s1 | active: 11.2 µM |
| O=C(C1CN(C(=O)c2cc3cc(Cl)ccc3o2)c2ccccc2O1)N1CCCCC1 (stereo not drawn) | inconclusive [activator, partial curve, poor fit] |
| CCCCn1cc(S(=O)(=O)c2ccc(C)c(C)c2)c(=O)c2cc(F)c(N3CCN(C)CC3)cc21 | inactive |
| COCCNC(=O)/C(C#N)=C/c1cc(C(C)C)c(OC)cc1C | inconclusive [activator, single point] |
| O=C1CC(/C=C/c2ccc(Cl)cc2)=Nc2ccccc2N1 | inconclusive [activator, single point] |
| O=C(Nc1cccc2ccccc12)N1CCc2ccccc2C1 | inconclusive [activator, partial curve] |
| CCOC(=O)C1CCCN(C2=NC(=O)/C(=C/c3ccc(OC)cc3)S2)C1 (stereo not drawn) | inconclusive [activator, partial curve] |
| O=C(Nc1cc(-c2ccccc2)cs1)c1ccco1 | inconclusive [activator, partial curve] |
| Cc1sc2ncn(CC(=O)Nc3cccc(C(F)(F)F)c3)c(=O)c2c1S(=O)(=O)N1CCC(C)CC1 | inactive |
| Cc1ccc(COc2ccc(/C=N/NC(=O)c3ccc(CN4CCOCC4)cc3)cc2)cc1 | inconclusive [activator, partial curve] |
| Cc1cccc(NC(=O)CSc2cccc3cccnc23)c1 | inconclusive [activator, full curve, poor fit] |
| Cc1ccc(S(=O)(=O)N(CCCO)CC(O)CON=C2c3ccccc3-c3ccccc32)cc1 (stereo not drawn) | inconclusive [activator, partial curve, poor fit] |
| O=C(c1ccc2ccccc2c1)C1CCCN(C(=O)c2cccnc2)C1 (stereo not drawn) | inactive |
| NC(=O)c1ccc(NCCc2ccccc2)c([N+](=O)[O-])c1 | inconclusive [activator, partial curve] |
| Cc1ccc2cc3cc(C(=O)N4CCN(C(=O)c5ccco5)CC4)sc3nc2c1 | active: 12.6 µM |
| CCOC(=O)CN[C@H]1CCC2C3CC=C4C[C@@H](O)CC[C@]4(C)C3CC[C@@]21C (stereo partly drawn) | inconclusive [activator, full curve] |
